Laboratory results reported in PubChem BioAssay AID1508624 (National Center for Advancing Translational Sciences (NCATS), 2021).
Hit rate of the full screen: of about 48,000 compounds, about 120 (0.25%) were called active. Another 4% or so got no clear call; they are omitted. Calls follow the shape of the dose curve; as a rule, active = well fitted activation curve with a large enough effect; inconclusive = small, poorly fitted or top-dose-only effect, or another doubt; inactive = no such curve, though single readings can be large or run the other way. Some of the results follow.

test: Primary qHTS for Identification of Small Molecule Activators of Huntingtin-Antisense Promoter Activity; conditions: HEK293 HTT-AS promoter firefly luciferase reporter, 24 h; series mostly up to 57.5 µM; activity change, positive = activation: at the top concentration; also: nearly all actives have a fitted effect of over 55% in size
Summary of the method: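 HEK293 cells carrying firefly luciferase reporters were seeded at 2,500 per well in Opti-MEM and cultured for 24 h. They were then treated with compounds at up to 57.5 uM final for 24 h at 37 degrees C before Dual-Glo luminescence readout.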

Activity change, positive = activation, inactive:
Cc1ccc(CNC(=O)C(C)n2nc(C)n3c(cc4sccc43)c2=O)cc1 (stereo unspecified) -1.81%
CCOC(=O)C1CCCN(C(=O)c2ccc3c(c2)sc2nc(-c4ccc(CC)cc4)cn23)C1 (stereo unspecified) -49.3%
COc1ccccc1C(=O)Nc1cccc(C(=O)OCc2cc(=O)n3ccsc3n2)c1 0%
Cc1ccc(S(=O)(=O)N(CC(=O)Nc2ccc(Cl)cc2Cl)c2ccccc2C)cc1 -12.3%
COc1ccc(CCNC(=O)Cc2c(C)c3cc4c(C(C)(C)C)coc4c(C)c3oc2=O)cc1 -6.23%
COc1cc(-c2noc(-c3ccc(NCC4CCCO4)c([N+](=O)[O-])c3)n2)cc(OC)c1OC (stereo unspecified) -15%
Cc1ccc(C)c(Nc2cc(C(=O)NC3CCCC3)c3ccccc3n2)c1 -12%
COc1ccc(NC(=O)CC2C(=O)N(c3ccc(OC)cc3)C(=O)N2CCC2=CCCCC2)cc1 (stereo unspecified) -12.1%
COc1cc(NC(=O)CSc2nc3ncccc3o2)cc(OC)c1 -11.3%
Cl/C(=C\n1cncn1)c1ccc(Cl)cc1Cl -8.23%
CN(C)C(=O)[C@H](O)[C@H](Cc1ccccc1)NC(=O)c1cc2cc(Cl)ccc2[nH]1 -33.9%
COc1ccc(-c2nc(CS(=O)(=O)CC(=O)NCc3ccccc3Br)c(C)o2)cc1 -6.78%
O=C(NCCCN1CCCCCC1)c1ccc2c(c1)sc1nc(-c3ccccc3)cn12 0.194%
Cc1nc2cc(-c3ccccc3)nn2c(C)c1CCC(=O)Nc1ccc(F)cc1F -79.2%
CCC(C(=O)Nc1ccc(C)c(C)c1)n1c(=O)c(C(F)(F)F)nc2ccccc21 (stereo unspecified) 0.516%
Cc1ccc(CNC(=O)CCCn2c(=O)c3ccccc3n(CC(=O)Nc3ccc(C)cc3)c2=O)cc1 -6.2%
CCOC(=O)c1c(NC(=O)COc2ccc(Cl)cc2C)sc2c1CCCCC2 -12%
Cc1ccc(CNC(=O)CS(=O)(=O)c2cccc3nsnc23)cc1 -12%
COc1cccc(NC(=O)Cn2c(=O)n(CCC(=O)NCCc3ccc(Cl)cc3)c(=O)c3ccccc32)c1 -7.97%
CCOc1cc(-c2ccc(OC(=O)c3ccccc3Cl)c(OC)c2)cc(=O)c2c(C)oc(C)c12 -14.2%
Cc1cccc(C)c1NC(=O)c1ccc2c(c1)nnn2C1CCCC1 -19.8%
COc1ccc(-c2nn3c(=O)cc(CN4CCN(C(=O)/C=C/c5ccccc5)CC4)nc3s2)cc1 -1.74%
COc1ccc(C2CC(=O)Nc3c2c(=O)[nH]c2nc4ccccc4n32)cc1 (stereo unspecified) -19.1%
CCn1cc(C(=O)Nc2cccc(Cl)c2)c2cc(OC)c(OC)cc2c1=O -27.8%
Cc1cc(C)cc(NC(=O)CSc2nc3c(c(=O)[nH]2)CN(Cc2ccc(F)cc2)CC3)c1 -7.95%
COc1ccccc1N1CCN(C(=O)Cn2c(=O)n3nc(-c4cccc(F)c4)nc3c3ccccc32)CC1 -2.61%
CCCCN(CC)CCNC(=O)C1CCN(S(=O)(=O)c2cccc3nsnc23)CC1 -0.396%
CCNC(=O)c1ccc(NC(=O)N2CCCCc3ccccc32)cc1 -12.9%
COc1cc(NC(=O)CN2CCN(c3ccc(F)cc3)CC2)cc(OC)c1 -12%
Cc1nn(CC(=O)NC2CCC(C)CC2)c(=O)c2c1sc1ccccc12 (stereo unspecified) 18%
CCn1cc2nc(SCC(=O)Nc3cc(OC)cc(OC)c3)n(Cc3ccc(Cl)cc3)c(=O)c2n1 -20.7%
Cc1ccc(NC(=O)CCc2c(C)nc3c(-c4ccc(F)cc4)c(C)nn3c2C)cc1F -1.2%
Cc1ccc2oc(-c3ccc(NC(=O)CCC(=O)O)cc3)nc2c1 25.4%
Cc1cc(C)c(Nc2ncnc3c2cnn3C)c(C)c1 0%
O=C(/C=C/c1ccccc1Cl)N1CCC(c2nc3ccccc3o2)CC1 -18.6%
CCOc1ccc(NC(=O)c2sc3nc4n(c(=O)c3c2C)CCC4)cc1 1.39%
COC(=O)N1CCCc2cc(S(=O)(=O)NCc3ccccc3)ccc21 -20.5%
COc1ccc(OC(=O)c2nc(SCc3ccccc3F)ncc2Cl)cc1 -3.78%
Cc1ccc(NC(=O)Cn2c(=O)n(Cc3ccco3)c(=O)c3oc4ccccc4c32)cc1C -2.31%
CCC(C)NC(=O)c1nn(-c2ccc(C)cc2)nc1CO (stereo unspecified) -0.296%
Cc1cccc(CN2C(=O)c3ccccc3Sc3ccc(C(=O)NC4CCCCC4)cc32)c1 -11.4%
CC(C)(C)c1ccc(C(=O)NCC(c2cccnc2)N2CCc3ccccc3C2)cc1 (stereo unspecified) -81.4%
Cc1cccc(CNC(=O)C2CCC(CNS(=O)(=O)c3ccc4c(c3)CCCC(=O)N4)CC2)c1 (stereo unspecified) -22.1%
O=C(Nc1ccc2nc(SCC(=O)N3CCOCC3)sc2c1)c1cccc(Br)c1 -34.2%
CC[C@@]1(c2ccccc2)NC(=O)N(C)C1=O -6.22%
CCc1nn(CC(=O)N2CCN(c3ccc(OC)cc3)CC2)c(=O)c2cc3sccc3n12 -15.5%
CC(CCc1ccccc1)NC(=O)Cn1ncc2c3ccccc3n(Cc3ccccc3F)c2c1=O (stereo unspecified) 22.7%
CCC(=O)C1=C(c2ccc(F)cc2)N(C(=O)CC)n2c(nnc2-c2ccc(OC)cc2)S1 -13.9%
O=C(CSc1nccn1-c1cccc(Cl)c1)Nc1ccc2c(c1)OCO2 6.86%
COc1ccc(-c2cnc(C)o2)cc1S(=O)(=O)Nc1ccc(NC(C)=O)cc1 2.12%
Cn1c(=O)oc2cc(S(=O)(=O)CCC(=O)N3CCN(c4ccccc4F)CC3)ccc21 -13.6% [at 11.5 µM, percent change from vehicle, -100% = no light]
O=C(CCn1c(=O)c2cccn2c2cccnc21)N1CCN(c2ccccc2)CC1 -10.5%
CCn1c(SCC(=O)Nc2ccccc2C(=O)OC)nc2ccsc2c1=O -13.7%
Cc1ccc(-c2cc(C(=O)Oc3ccc(C#N)cc3)no2)cc1 12.3%
CCC(=O)NNc1ncnc2c1cnn2-c1ccc(C)c(Cl)c1 -4.95%
O=C(CSc1nc(=O)[nH]c2c1CCC2)NCc1ccccc1Cl -1.44%
CCN(Cc1ccccc1)C(=O)Cn1c(=O)n(-c2ccccc2)c(=O)c2c1c1cc(C)ccc1n2C -14.6%
CCc1ccc(CSc2nc(-c3ccccc3F)nc3c2Cc2c(CO)cnc(C)c2O3)cc1 -13.4%
CCSc1ccccc1C(=O)N1CCN(c2nc3ccccc3s2)CC1 -42.1%
Cc1ccc(C)c(NC(=O)CSc2nc3ccccc3nc2N2CCOCC2)c1 23.9%
CC(C)(C)OC(=O)N1CCC(c2c(C(=O)N3CCCCC3)cnn2-c2ccc(F)cc2)CC1 -11.1%
